The whole screen tested about 420,000 compounds, of which about 50,000 (12%) were called active. The inconclusive results got no clear call from the source; some entries with a clear call stand among them for comparison. The call rests on the fitted dose curve; in most records, active means well fitted inhibition curve with a large enough effect; inconclusive means small, poorly fitted or top-dose-only effect; inactive means flat fitted curve, though single readings scatter. Potencies of inconclusive entries are left out as doubtful fits.
Experiment: qHTS for Inhibitors of human tyrosyl-DNA phosphodiesterase 1 (TDP1): qHTS in cells in presence of CPT; further: nearly all actives have a fitted effect of over 55% in size
Settings: chicken DT40 Tdp1-/-;hTDP1 cells + 20 nM CPT, ATP luminescence, 48 h; activity change, negative = growth inhibition: at 46.2 µM (top of the series) unless noted
Summary of the method: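 Chicken DT40 Tdp1-/- cells complemented with human TDP1, 400 cells/well, exposed to compounds plus 20 nM camptothecin for at least 48 h at 37 C; viability read as ATP content by CellTiter-Glo luminescence.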
On the % scale 0 is the no-effect control and ±100 the full control effect; potency means the concentration at half of the fitted maximal effect; tags describe the fitted curve by direction and shape.

Row | Compound | Potency | activity change, negative = growth inhibition
1 | C=CCOC(=O)C1=C[C@H](c2coc3ccccc3c2=O)C[C@H](OCc2ccc(CO)cc2)O1 | inconclusive [inhibitor, single point] | 
2 | CN(CC(=O)Nc1ccc(Cl)c(C(F)(F)F)c1)C(=O)c1ccc2c(c1)NC(=O)CS2 | inconclusive [inhibitor, single point] | 
3 | O=C(c1ccccc1)c1ccc(Cn2cc(-c3ccccc3)nn2)cc1 | active: 7.31 µM | 
4 | Cc1cccc(CN2C(=O)c3ccccc3S(=O)(=O)c3ccc(C(=O)OCC4CCCO4)cc32)c1 (configuration not stated) | inactive | 
5 | N#Cc1cc2ccccc2nc1SCC(=O)Nc1ccc(S(=O)(=O)N2CCCC2)cc1 | active: 20.6 µM | 
6 | C#CCOc1ccc(CNC[C@H]2O[C@@H](n3ccc(=O)[nH]c3=O)[C@H](O)[C@@H]2O)cc1 | inactive | 
7 | Cc1ccc(/C=C/C(=O)Nc2nccs2)o1 | inconclusive [inhibitor, single point] | 
8 | CCc1cc(C(=O)NCC2Cc3cc(-c4ccccc4C(C)=O)ccc3O2)no1 (configuration not stated) |  | inactive: -9.89% [at 9.04 µM]
9 | O=C(Nc1ccc2c(c1)OCCO2)c1cc2sccc2n1Cc1ccccc1 | active: 18.4 µM | 
10 | CCc1ccc(C(=O)c2cn(CC(=O)Nc3ccc(F)cc3)c3ccc(F)cc3c2=O)cc1 | inconclusive [inhibitor, single point] | 
11 | OCC[C@@H]1NCc2cc(CO)cc(-c3ccccc3)c21 | active: 20.6 µM | 
12 | CS(=O)(=O)N1Cc2cc(C(=O)NCC3CC3)nc(-c3cccc(-c4cccnc4)c3)c2[C@H]1CCO | inactive | 
13 | CNc1nc(-c2ccccc2)c(-c2ccccc2)s1 | inconclusive [inhibitor, full curve, poor fit] | 
14 | CCC(C)C(NC(=O)C1CCC(C)CC1)C(=O)Nc1ccc(OC)cc1OC (configuration not stated) | inconclusive [inhibitor, single point] | 
15 | Cc1noc(C)c1NC(=O)Nc1ccc2c(c1)C(=O)N([C@H](C)CO)C[C@@H](C)[C@@H](CN(C)S(=O)(=O)c1cn(C)cn1)OCCCC[C@H](C)O2 | inactive | 
16 | CCOC(=O)Cc1csc(NC(=O)C(NC(=O)C2CCC(C)CC2)C(C)C)n1 (configuration not stated) | inconclusive [inhibitor, partial curve] | 
17 | Nc1ncnc2c1ncn2[C@@H]1O[C@H](C(=O)N[C@@H](CO)c2ccccc2)[C@@H](O)[C@H]1O | inactive | 
18 | Cc1ccc(C)c(N2N=C(C(=O)Nc3ccc(S(=O)(=O)N4CCCC4)cc3)CCC2=O)c1 | inconclusive [inhibitor, single point] | 
19 | CC(=O)Nc1ccc(NC(=O)C(C)OC(=O)C2(c3ccccc3F)CCCC2)cc1 (configuration not stated) | inconclusive [inhibitor, single point] | 
20 | C[C@H](NC(=O)c1[nH]cnc1C(=O)Nc1ccccc1F)c1ccccc1 | inconclusive [inhibitor, single point] | 
21 | NC(=O)C1CCN(C(=O)COc2ccc3ccc(=O)oc3c2)CC1 | inactive | 
22 | O=C(c1cccs1)N1CCCC(c2nc3c(nnn3Cc3ccccc3)c(=O)[nH]2)C1 (configuration not stated) | inconclusive [inhibitor, single point] | 
23 | Cc1cccc(C)c1NC(=O)CC12CCCN1CCC2 | inconclusive [inhibitor, single point] | 

Row | Compound | Potency | activity change, negative = growth inhibition
24 | Cc1ccc(C(=O)Nc2ccccc2N2CCOCC2)cc1S(=O)(=O)N1CCOCC1 | inconclusive [inhibitor, single point] | 
25 | C[C@H]1CN([C@@H](C)CO)C(=O)c2cc(C3=CCCCC3)cnc2O[C@@H]1CN(C)C(=O)Cc1ccccc1 | inconclusive [inhibitor, single point] | 
26 | COc1ccc(N2CCN(c3ccc(N4C(=O)COCC4=O)cc3[N+](=O)[O-])CC2)cc1 | inconclusive [inhibitor, single point] | 
27 | O=C(Cn1c(=O)n(Cc2ccc3c(c2)OCO3)c(=O)c2ccccc21)N1CCCc2ccccc21 | inconclusive [inhibitor, single point] | 
28 | Cc1ccc(CCNC(=O)c2sc3nc4n(c(=O)c3c2C)CCCC4)cc1 | inconclusive [inhibitor, single point] | 
29 | COC(=O)c1cc2sc(Cl)cc2n1CC(=O)N1CCCc2ccccc21 | inconclusive [inhibitor, single point] | 
30 | C[C@H](CO)N1C[C@H](C)[C@H](CN(C)S(C)(=O)=O)OCc2ccccc2-c2c(n(C)c3ccccc23)C1=O | inactive | 
31 | COc1ccc(/C=N/NC(=O)CCSc2nc3ccccc3s2)cc1OC | active: 13 µM | 
32 | Cc1nnc(SCC(=O)c2c(N)n(C)c(=O)n(C)c2=O)n1Cc1ccccc1 | inactive | 
33 | CC1CCN(C(=O)Nc2ccc3nc(-c4ccco4)c(-c4ccco4)nc3c2)CC1 | active: 11.2 µM | 
34 | Cc1ccc2onc(CNC(=O)N3CCN(c4cc(Cl)ccc4C)CC3)c2c1 | inconclusive [inhibitor, single point] | 
35 | CC(C)OP(=O)(c1ccc(N(C)C)cc1)C(Nc1ccccc1)c1cccnc1 (configuration not stated) | inconclusive [inhibitor, single point] | 
36 | COc1cc(/C=C2\C=Cc3ccccc32)cc(OC)c1OC | inconclusive [inhibitor, single point] | 
37 | O=S(=O)(Oc1ccccc1)c1ccc(Cl)c(Cl)c1 | inactive | 
38 | CCOC(=O)C1C(=O)C=C(C)C(C(=O)OCC)C1c1cccc([N+](=O)[O-])c1 (configuration not stated) | inconclusive [inhibitor, single point] | 
39 | CCOc1ccc(CNC(=O)c2cccc(NC(=O)C3=C(C)OCCS3)c2)cc1 | inconclusive [inhibitor, single point] | 
40 | Cc1ccc(C)c(-c2nnc(NC(=O)c3ccco3)o2)c1 | inconclusive [inhibitor, single point] | 
41 | O=C(Nc1cccc(-c2ccc(N3CCOCC3)nn2)c1)c1ccccc1 | inconclusive [inhibitor, single point] | 
42 | O=C(CSc1ccc(Br)cc1)N1CCN(C(=O)c2ccco2)CC1 | inactive | 
43 | Cc1cccc(CN2C(=O)CCSc3ccc(Cl)cc32)c1 | inconclusive [inhibitor, single point] | 
44 | Cc1cc(C)n(C(=O)C2CCCN2S(=O)(=O)c2ccc(Cl)cc2)n1 (configuration not stated) | inactive | 
45 | COc1ccc(C(C)=O)cc1CSc1nc(NCc2ccccc2)c2ccccc2n1 | inconclusive [inhibitor, single point] | 
46 | COCCc1ccc(OC2(C)CCN(Cc3cccc(OC)c3OC)C2)cc1 (configuration not stated) | inconclusive [inhibitor, single point] | 

Row | Compound | Potency | activity change, negative = growth inhibition
47 | COc1ccc(NC(=O)COC(=O)CNS(=O)(=O)/C=C/c2ccccc2)cc1OC | inactive | 
48 | CCOc1ccc(C(=O)COC(=O)c2cccc(-n3cnnn3)c2)cc1 | inconclusive [inhibitor, full curve] | 
49 | COc1ccc(CN2[C@@H](CC(=O)O)c3ccccc3S2(=O)=O)cc1 | inconclusive [inhibitor, full curve, poor fit] | 
50 | CCCCn1nnnc1C(c1cc2ccccc2o1)N1CCN(CCN(C)C)CC1 (configuration not stated) | inconclusive [inhibitor, single point] | 
51 | COc1ccccc1N(CC(=O)N1CCCCC1)S(=O)(=O)c1ccccc1 |  | inconclusive: -36.7% [inhibitor]
52 | CCN(CC)c1ccc(S(=O)(=O)N(CC)CC)cc1NC(=O)C1CCCC1 | inconclusive [inhibitor, single point] | 
53 | CCN(CC)CCCn1c2c(c(SCC(=O)Nc3ccc(OC(F)(F)F)cc3)nc1=O)CCC2 | inconclusive [inhibitor, single point] | 
54 | O=C(NCCCN1CCN(CCCNC(=O)c2cccc([N+](=O)[O-])c2)CC1)c1cccc([N+](=O)[O-])c1 | inactive | 
55 | Cc1ccc2c(c1)c(=O)c1ccccc1n2CCCC(=O)Nc1ccc(C)c(C)c1 | active: 23.1 µM | 
56 | COc1cc(-c2nn3c(COc4ccccc4)nnc3s2)cc(OC)c1OC | inactive | 
57 | COC(=O)[C@@H]1C[C@@]2(O)[C@@H](O)[C@@H](O)[C@@H](O)C[C@H]2N1Cc1ccc(Cl)cc1 | inactive | 
58 | Cc1ccc(C(=O)C2CCN(CC(=O)Nc3ccc(N(C)C)cc3)CC2)cc1 | inconclusive [inhibitor, partial curve, poor fit] | 
59 | CCOC(=O)C1=C(CSc2nc3c(cc2C#N)CN(C)CC3)OC(N)=C(C#N)C1c1ccncc1 (configuration not stated) | inactive | 
60 | COc1ccccc1N1CCN(CCN2C(=O)c3ccccc3C(C)(C)C2=O)CC1 | active: 14.6 µM | 
61 | CC(C)CC(=O)n1nc(-c2ccco2)nc1NCc1ccc(Cl)cc1 | inconclusive [inhibitor, partial curve] | 
62 | Cc1ccc(COC(=O)c2[nH]c3c(c2C)C(=O)CC(c2ccc(Cl)cc2)C3)cc1 (configuration not stated) | active: 11.6 µM | 
63 | Cc1cccc(C(=O)Nc2c(C(=O)N(C)C)cnn2-c2ccccc2)c1 | inactive | 
64 | O=C(CNC(=O)c1ccccc1O)N/N=C/c1cc(Br)ccc1OC(=O)/C=C/c1ccco1 | active: 7.31 µM | 
65 | CCn1ncc(Br)c1C(=O)Nc1ccccc1C(=O)OC | inactive | 
66 | CC(C)OC(=O)c1ccc(NC(=O)CSc2nc(-c3cccs3)cc(C(F)(F)F)n2)cc1 | active: 16.4 µM | 
67 | COc1ccc(CN2CCC[C@]3(N[C@H](c4ccc(C)cc4)[C@@H]4C(=O)N(Cc5ccccc5)C(=O)[C@@H]43)C2=O)cc1 | inconclusive [inhibitor, partial curve, poor fit] | 
